# From PubChem BioAssay AID651820 (National Center for Advancing Translational Sciences (NCATS), 2012)
# About 12,000 (3.5%) of roughly 340,000 compounds were called active. This list was built around the results that the source calls inconclusive (neither active nor inactive); the mix of calls is not that of the screen. Calls follow the shape of the dose curve; as a rule, active = well fitted inhibition curve with a large enough effect; inconclusive = small, poorly fitted or top-dose-only effect, or another doubt; inactive = no such curve, though single readings can be large or run the other way. Potencies of inconclusive entries are left out as doubtful fits.
# Assay: qHTS Assay for Inhibitors of Hepatitis C Virus (HCV)
# Conditions: Huh7.5.1 HCVcc-Cre (HCVcc is cell-culture hepatitis C virus) infection, luciferase reporter, 44 h; series mostly up to 41.8 µM
# Summary of the method: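 1,000 cells/well; 4 h culture; + compound; + HCVcc-Cre (~0.5 moi); 44 h; luciferase substrate, RT 15 min; read 15 sec.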
# Potency is read from the fitted curve at half-maximal effect; tags tell the direction and shape of the fitted curve.
row,SMILES,Potency
1,O=C(CCCC(=O)N/N=C\c1ccccn1)N/N=C\c1ccccn1,inactive
2,COc1ccc(CCNC(=O)c2nn(C)c3c2CS(=O)(=O)c2ccccc2-3)c(OC)c1,active: 11.2 µM
3,Cc1ccc(C)c(OC(=O)c2cncc(Br)c2)c1,inactive
4,C=CCNC(=O)c1c[nH]c2ccc(S(=O)(=O)N(C)c3ccc(OCC)cc3)cc2c1=O,"inconclusive [inhibitor, single point]"
5,COc1cc2sc(-c3ccc(S(C)(=O)=O)cc3)c(-c3ccc4c(c3)OCO4)c2cc1OC,active: 2.82 µM
6,COC(=O)c1ccccc1NC(=O)Nc1c(C)n(C)n(-c2ccccc2)c1=O,inactive
7,Cc1ccc(NC(=O)c2ncn(CCCNCC(C)c3ccccc3)n2)cc1C (stereo not drawn),"inconclusive [inhibitor, partial curve]"
8,O=c1c([N+](=O)[O-])cc(C(F)(F)F)cn1Cc1c(Cl)cccc1Cl,inactive
9,Cc1ccc(NC(=O)CSc2nc(NS(=O)(=O)c3ccc(C)cc3)cc(=O)[nH]2)cc1,inactive
10,Cc1ccc(C(=O)Nc2ccc(CN3CCCCC3)cc2)c(C)c1,inactive
11,COc1ccc(CNC(=O)COc2cc3c(c4oc(=O)cc(C)c24)CCC(C)(C)O3)cc1,active: 7.08 µM
12,C=CCNC(=O)c1ccc2c(c1)N(CC)C(=O)c1ccccc1S2,inactive
13,C[C@@]12C(=O)N(Cc3ccc(F)cc3)CC(=O)N1[C@H]1c3cc(Cl)ccc3OC[C@@H]1[C@@H]2c1ccccc1,"inconclusive [inhibitor, partial curve]"
14,COc1ccc(C=CC(=O)C=CC=Cc2ccccc2)cc1,"inconclusive [inhibitor, partial curve]"
15,CCN1C(=O)[C@H]2[C@@H](c3ccc(-c4ccc(F)cc4)cc3)N[C@@](CC(C)C)(C(=O)OC)[C@H]2C1=O,"inconclusive [inhibitor, single point]"
16,CCOC(=O)/C(C#N)=C/Nc1cc(OC)ccc1OC,"inconclusive [inhibitor, partial curve]"
17,CCCCN(C(=O)c1cnccn1)c1c(N)n(CCC)c(=O)[nH]c1=O,inactive
18,Cc1cccc(NC(=O)c2ccc(N3CCOCC3)c([N+](=O)[O-])c2)n1,"inconclusive [inhibitor, single point]"
19,CC(O/N=C/c1ccc(OC(F)F)cc1)C(=O)Nc1cccc(S(=O)(=O)N2CCOCC2)c1 (stereo not drawn),"inconclusive [inhibitor, single point]"
20,CC1Sc2ccc(S(=O)(=O)N3CCC(C(=O)N(C)Cc4ccccc4)CC3)cc2NC1=O (stereo not drawn),"inconclusive [inhibitor, partial curve]"
21,COC(=O)c1c(NC(=S)NN2CCN(C)CC2)sc2c1CCC(C)C2 (stereo not drawn),active: 2.82 µM
22,CCCOC(=O)CSc1nnc(-c2ccccc2Cl)o1,"inconclusive [inhibitor, partial curve]"
23,CCOC(=O)/C(C#N)=C/c1c(Oc2cc(C)cc(C)c2)nc2ccccn2c1=O,"inconclusive [inhibitor, single point]"
24,CC1CCc2sc(C(=O)N3CCN(c4ncccn4)CC3)cc2C1 (stereo not drawn),inactive
25,CC(=O)c1c(C)oc2ccc(N(C(C)=O)S(=O)(=O)c3cccc4cccnc34)cc12,"inconclusive [inhibitor, single point]"

row,SMILES,Potency
1,Cc1ccc(S(=O)(=O)NC2CC(C)(C)NC(C)(C)C2)c(C)c1C,"inconclusive [inhibitor, single point]"
2,Cc1ccccc1OCCn1cc(C(=S)N2CCN(C)CC2)c2ccccc21,"inconclusive [inhibitor, single point]"
3,NC(=O)c1nn(-c2ccccc2)nc1N,inactive
4,O=C(CN1C(=O)COc2ccccc21)NCCCN1CCc2ccccc2C1,inactive
5,CSc1ccc(CC(=O)N2CCC(n3nccc3NC(=O)C3CC3)CC2)cc1,inactive
6,O=C(O)/C=C/C(=O)Nc1ccc(SC(F)(F)F)cc1,inactive
7,O=C(Nc1ccc(Br)cc1)NC1CCCCCCC1,"inconclusive [inhibitor, single point]"
8,CN1CCCCCC1C(=O)N1CCC(N2CCC(C(=O)N3CCOCC3)CC2)CC1 (stereo not drawn),inactive
9,Cc1ccc(S(=O)(=O)N2CCCCC2)cc1NC(=O)CSc1ccc2c(c1)OCCO2,"inconclusive [inhibitor, single point]"
10,O=C(Nc1nnc(CC2=CCCCC2)s1)Nc1ccccc1F,inactive
11,COC(=O)C1=C(C(=O)OC)[C@@H]2Nc3ccccc3[C@@]23C[C@@H](C(=O)OC)N=C3N1,"inconclusive [inhibitor, partial curve]"
12,Cc1ccnc(NC(=O)c2ccc(Cl)c(NC(=O)c3ccccc3C)c2)c1,"inconclusive [inhibitor, partial curve]"
13,CCOc1ccccc1N1CC(C(=O)Nc2ccccc2N2CCOCC2)CC1=O (stereo not drawn),"inconclusive [inhibitor, single point]"
14,COc1ccc(-c2nc(C#N)c(NCC3CCCO3)o2)cc1OC (stereo not drawn),"inconclusive [inhibitor, full curve, poor fit]"
15,COc1ccc2c(C)nc(Nc3nc(C)c(C)c(=O)[nH]3)nc2c1,"inconclusive [inhibitor, single point]"
16,COc1ccc(CC(=O)c2ccc(OC)c(OC)c2)cc1,"inconclusive [inhibitor, full curve]"
17,COc1cc(C(=O)NCC(c2cccs2)N(C)C)cc(Cl)c1OC(C)C (stereo not drawn),"inconclusive [inhibitor, partial curve]"
18,Cc1ccc(S(=O)(=O)N2CCC(C(=O)NCc3ccccc3Cl)CC2)cc1,inactive
19,COc1ccc(-c2nn(-c3ccccc3)cc2C(=O)O)cc1N,inactive
20,COc1ccc(C(=O)Nc2nc(CC(=O)NCCc3ccccc3OC)cs2)cc1,"inconclusive [inhibitor, full curve]"
21,N#Cc1nc(-c2ccc(OCc3ccccc3)cc2)oc1NCc1ccco1,"inconclusive [inhibitor, single point]"
22,COc1ccc(-n2ncc3c(NCC4CCCO4)ncnc32)cc1 (stereo not drawn),"inconclusive [inhibitor, partial curve]"
23,O=C(NCC1CCCO1)c1nn2c(C(F)(F)F)cc(-c3ccc(Br)o3)nc2c1Br (stereo not drawn),"inconclusive [inhibitor, partial curve]"
24,CS(=O)(=O)N1CCN(c2ccccc2NC(=O)c2ccc(Br)o2)CC1,"inconclusive [inhibitor, partial curve]"
25,CCn1c(CCC(=O)Nc2cc(F)ccc2C)nc2cc(S(=O)(=O)N(C)C)ccc21,"inconclusive [inhibitor, partial curve]"

row,SMILES,Potency
1,CCCc1nc2ccccc2c(NC(=O)CN(CC)CC)c1CC,inactive
2,CC(=O)c1ccc(OCCCC(=O)Nc2cc(S(=O)(=O)N3CCCCC3)ccc2C)cc1,"inconclusive [inhibitor, single point]"
3,CCc1ccc(-n2cc(-c3ccc([N+](=O)[O-])cc3)[nH]c2=S)cc1,inactive
4,O=C(Nc1ccc2c(c1)OCO2)c1cccc(Cl)c1,"inconclusive [inhibitor, single point]"
5,C=CCCC(=O)N1CCCC(Cc2cccc(Cl)c2)(C(=O)OCC)C1 (stereo not drawn),"inconclusive [inhibitor, partial curve]"
6,CCCCN1/C(=C/c2ccc3ccccc3[n+]2CC)Sc2ccccc21,active: 8.91 µM
7,Cc1c(CCNC=O)cc(C)c2c3c(oc12)CCCC3,"inconclusive [inhibitor, single point]"
8,Cc1ccsc1/C=N/n1c(C2CCCCC2)n[nH]c1=S,inactive
9,CN1CCc2cc(O)c(O)cc2C(c2ccccc2)C1 (stereo not drawn),"inconclusive [inhibitor, single point]"
10,Cc1ccc(-c2nc(CS(=O)CC(=O)NCc3ccc(Cl)cc3)c(C)o2)cc1 (stereo not drawn),active: 11.2 µM
11,O=C(C1=C[C@@H](c2ccc(C(F)(F)F)cc2)C[C@@H](OCc2ccc(CO)cc2)O1)N1CCOCC1,inactive
12,CC12CCC(O)CC1CCC1C2CCC2(C)C(C3=CC(=O)OC3)C(O)CC12O (stereo not drawn),"inconclusive [inhibitor, partial curve]"
13,CC(C)c1cccc(C(C)C)c1OC(=O)NC(=O)c1c(F)cccc1F,inactive
14,CCN(CC)CCC(c1cc(OC)c(OC)c(OC)c1)c1c(OC)cc(OC)c2c(C)cc(=O)oc12 (stereo not drawn),inactive
15,Cc1cc(F)ccc1NC(=O)c1cc(S(=O)(=O)N2CCc3ccccc32)cn1C,"inconclusive [inhibitor, single point]"
16,CCCCCOc1ccc(/C(C)=N/NC2=NCCN2)cc1,"inconclusive [inhibitor, single point]"
17,COc1ccc(CC(=O)OCC(=O)c2c[nH]c3ccccc23)cc1,"inconclusive [inhibitor, single point]"
18,COc1ccc(C(=O)COC(=O)c2cc3ccccc3oc2=O)c(OC)c1,inactive
19,O=C(CSc1ccccc1)OCC(=O)N1CCN(C(=O)c2ccco2)CC1,inactive
20,CCCCn1nc2cc(C(=O)NCc3ccccc3)ccc2c1OCC,"inconclusive [inhibitor, partial curve]"
21,O=S(=O)(NCc1csc(-c2cccs2)n1)c1ccccc1,inactive
22,CN(C)CCCN(C(=O)C1=COCCO1)c1nc2ccc(Br)cc2s1,active: 12.6 µM
23,CCCN(Cc1ccccc1)C(=S)Nc1cccc(C(F)(F)F)c1,"inconclusive [inhibitor, single point]"
